{"source": "PubChem BioAssay AID686971", "about": "(National Center for Advancing Translational Sciences (NCATS), 2013)", "note": "The whole screen tested about 360,000 compounds, of which about 7,500 (2.1%) were called active. This list was built around the results that the source calls inconclusive (neither active nor inactive); the mix of calls is not that of the screen. Calls follow the shape of the dose curve; as a rule, active = well fitted cell-killing curve with a large enough effect; inconclusive = small, poorly fitted or top-dose-only effect, or effect the other way, or another doubt; inactive = no such curve, though single readings can be large or run the other way. No potency is given beside an inconclusive call; the fits are too rough. Potency is read from the fitted curve at half-maximal effect; tags tell the direction and shape of the fitted curve."}
{"assay": "qHTS for induction of synthetic lethality in tumor cells producing 2HG: qHTS for the HT-1080-IDH1KD cell line;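 as to activity, negative = toxicity: 0% = DMSO wells and -100% = cell-free medium wells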", "settings": "HT-1080 IDH1 knockdown viability, ATP luminescence, 48 h; activity, negative = toxicity: at 46.1 µM (top of the series) unless noted", "how_it_was_run": "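After a 2 h attachment period, IDH1KD HT-1080 cells took pin-transferred compound for 48 h at 37 °C; ATP-based luminescence after 10 min room-temperature reagent incubation reported viability.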"}
{"smiles": "CCOc1ccc2nc(NC(=O)CN3CCC(n4nnc5cc(C(F)(F)F)ccc54)CC3)sc2c1", "Potency": "inconclusive [cytotoxic, partial curve]"}
{"smiles": "O=C(C1=C[C@H](C2CCCCC2)C[C@H](OCc2ccc(CO)cc2)O1)N1CCN(Cc2ccc3c(c2)OCO3)CC1", "Potency": "inconclusive [cytotoxic, single point]"}
{"smiles": "Cc1cccc(NC(=O)CSc2nc3ccccc3c(=O)n2C)c1", "Potency": "inconclusive [cytotoxic, single point]"}
{"smiles": "Cc1ccccc1C1C(C#N)=C2N=C(N)c3c(sc4c3CCCCC4)N2C2=C1C(=O)CCC2", "note": "(configuration not stated)", "Potency": "inconclusive [cytotoxic, partial curve]"}
{"smiles": "Cc1ccc(S(=O)(=O)n2nccc2-c2c(-c3ccccc3)noc2C)cc1", "Potency": "inconclusive [cytotoxic, partial curve]"}
{"smiles": "COc1ccc(NC(=O)c2cn(CCC#N)nc2-c2cc3ccccc3o2)cc1", "Potency": "inconclusive [cytotoxic, single point]"}
{"smiles": "C[C@H](CO)N1C[C@H](C)[C@@H](CN(C)Cc2ccc3c(c2)OCO3)Oc2c(NC(=O)Cc3ccccc3)cccc2C1=O", "Potency": "inconclusive [cytotoxic, single point]"}
{"smiles": "CCc1ccc(C(=O)Nc2ccc3nc(C)ccc3c2)cc1", "Potency": "inconclusive [cytotoxic, single point]"}
{"smiles": "Cc1ccc(NC(NC(=O)c2cccs2)C(Cl)(Cl)Cl)cc1C", "note": "(configuration not stated)", "Potency": "inconclusive [cytotoxic, single point]"}
{"smiles": "COc1ccc(C(=O)CCS(=O)(=O)c2ccc(C)cc2)cc1OC", "Potency": "inconclusive [cytotoxic, single point]"}
{"smiles": "CN1/C(=C\\C(=O)C[n+]2ccc(C(=O)c3ccccc3)cc2)C(C)(C)c2ccccc21", "Potency": "inconclusive [cytotoxic, partial curve]"}
{"smiles": "CC(=O)Nc1ccc2c(c1)C(N1CC3CCC(CC3)C1)c1ccccc1-2", "note": "(configuration not stated)", "Potency": "inconclusive [cytotoxic, single point]"}
{"smiles": "COc1ccc(NC(=O)Cn2nnc(C(=O)NCc3cccc(OC)c3)c2N)cc1", "Potency": "inconclusive [cytotoxic, single point]"}
{"smiles": "COc1ccc2cc3cc(C(=O)NCCN4CCc5ccccc5C4)oc3nc2c1", "Potency": "inconclusive [cytotoxic, single point]"}
{"smiles": "CCCC(=O)NC(c1ccco1)c1c(O)ccc2ccccc12", "note": "(configuration not stated)", "Potency": "inconclusive [cytotoxic, partial curve, poor fit]"}
{"smiles": "CCCn1nnnc1NCc1ccc(SC)cc1", "Potency": "inactive"}
{"smiles": "Clc1ccccc1-c1nc(N/N=C/c2cccnc2)c2ccccc2n1", "Potency": "inconclusive [cytotoxic, single point]"}
{"smiles": "CCOC(=O)c1cccc(Nc2nc(-c3cccnc3)nc3ccccc23)c1", "Potency": "inconclusive [cytotoxic, single point]"}
{"smiles": "C=CCOc1ccccc1C(=O)/C=C1/C(=O)Nc2ccccc21", "Potency": "inconclusive [cytotoxic, single point]"}
{"smiles": "COc1ccc2c(c1)CCc1c-2n[nH]c1C(=O)NCCC(C)C", "Potency": "inconclusive [rising, full curve, poor fit]"}
{"smiles": "CC(=O)N1c2ccc(S(=O)(=O)N3CCC(C(=O)Nc4ccc(F)cc4)CC3)cc2CC1C", "note": "(configuration not stated)", "Potency": "inactive"}
{"smiles": "COc1ccc(/C=N/NC(=O)c2ccn[nH]2)cc1COc1ccc([N+](=O)[O-])c(C)c1", "Potency": "inconclusive [cytotoxic, single point]"}
{"smiles": "COCC(C)NC(=O)NC(=O)c1ccc(Cl)cc1", "note": "(configuration not stated)", "Potency": "inconclusive [rising, full curve, poor fit]"}
{"smiles": "CCc1c(C)sc(NC(=S)N2CC(C)OC(C)C2)c1C(=O)OC", "note": "(configuration not stated)", "Potency": "inactive"}
{"smiles": "Cc1ccc(S(=O)(=O)Nc2ncnc3ccccc23)cc1", "Potency": "inactive"}
{"smiles": "COc1cccc(/C=N/NC(=O)c2ccc([N+](=O)[O-])cc2Cl)c1O", "Potency": "inconclusive [cytotoxic, partial curve]"}
{"smiles": "COc1ccc(-c2nc3ccccc3c(=O)n2O)cc1", "activity, negative = toxicity": "inconclusive: -30.5% [cytotoxic]"}
{"smiles": "Cc1ccc(NC(=O)/C(=C\\c2ccc([N+](=O)[O-])cc2)NC(=O)c2ccccc2)cc1", "Potency": "inactive"}
{"smiles": "COc1ccc(CNC(=O)COC(=O)c2cc(-c3ccc(Cl)s3)nc3ccccc23)cc1", "Potency": "inconclusive [cytotoxic, single point]"}
{"smiles": "Cc1cccc(C)c1C(O)c1ncc(-c2cccc(C(F)(F)F)c2)[nH]1", "note": "(configuration not stated)", "Potency": "inconclusive [cytotoxic, single point]"}
{"smiles": "CCOCc1cn(CC(=O)c2ccc(Cl)cc2)c(C)nc1=N", "Potency": "inactive"}
{"smiles": "CC(C)C[C@H]1COc2cccc(N(C)CCO)c2S(=O)(=O)N1", "activity, negative = toxicity": "inconclusive: 5.43%"}
{"smiles": "OC(COc1ccc2c(c1)CCC2)CN1CCN(c2cccc(Cl)c2)CC1", "note": "(configuration not stated)", "Potency": "inconclusive [cytotoxic, single point]"}
{"smiles": "Cc1cccc(/C=C2\\Sc3ccc(C(=O)N4CCCCC4)cc3N(C)C2=O)c1", "Potency": "inactive"}
{"smiles": "CC(C)c1nc(SCC(=O)Nc2ccc(N(C)C)cc2)c2ccccc2n1", "Potency": "inconclusive [cytotoxic, single point]"}
{"smiles": "FC(F)Sc1ccc(NC(=S)NC2CCCCC2)cc1", "Potency": "inconclusive [cytotoxic, single point]"}
{"smiles": "COc1ccccc1OCC(=O)N/N=C/C=C/c1ccc([N+](=O)[O-])o1", "Potency": "inconclusive [cytotoxic, partial curve]"}
{"smiles": "O=C(NCC(c1cccs1)N1CCOCC1)c1ccccc1NS(=O)(=O)c1ccc(Br)cc1", "note": "(configuration not stated)", "Potency": "inactive"}
{"smiles": "O=C(c1cc(C(=O)N2CCN(c3ccc(F)cc3)CC2)cc([N+](=O)[O-])c1)N1CCN(c2ccc(F)cc2)CC1", "activity, negative = toxicity": "inconclusive: -31.7% [cytotoxic]"}
{"smiles": "O=C(NNC(=O)c1ccccc1O)c1ccc(-c2ccc([N+](=O)[O-])cc2)o1", "Potency": "inconclusive [cytotoxic, partial curve]"}
{"smiles": "Cc1ccc(CNC(=O)Cc2ccc(Br)cc2)cc1", "Potency": "active: 8.2 µM"}
{"smiles": "CC1(C(=O)NCC2CC2)Cc2c(-c3cccc(C(F)(F)F)c3)ccnc2O1", "note": "(configuration not stated)", "Potency": "active: 20.6 µM"}
